# Measured values reported in the supplement of paper PMC8728848.
# This is one part of the list.
# Experiments:
# Test in all cases: glycan array binding signal (z-score within array); higher = stronger binding
# Conditions in all cases: glycan notation: IUPAC condensed, linker removed
# [1] = target: Neu5Ac(a2-3)Gal(b1-4)GlcNAc(b1-2)[Neu5Ac(a2-3)Gal(b1-4)GlcNAc(b1-4)]Man(a1-3)[GlcNAc(b1-4)][Neu5Ac(a2-3)Gal(b1-4)GlcNAc(b1-2)[Neu5Ac(a2-3)Gal(b1-4)GlcNAc(b1-6)]Man(a1-6)]Man(b1-4)GlcNAc(b1-4)GlcNAc
# Summary of the method: (§1)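 Glycan array data were curated from 3228 arrays in the Consortium for Functional Glycomics database and kept only where the protein sequence was available. Glycan names were converted to IUPAC-condensed notation, and columns mapping to the same glycan were averaged. The binding signal is a within-array Z-score, averaged across arrays of the same protein sequence at different concentrations or buffers and across linkers. Negative Z-scores can be read as non-binding.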
# [2] = target: Neu5Ac(a2-3)Gal(b1-4)GlcNAc(b1-2)[Neu5Ac(a2-3)Gal(b1-4)GlcNAc(b1-4)]Man(a1-3)[GlcNAc(b1-4)][Neu5Ac(a2-3)Gal(b1-4)GlcNAc(b1-4)Man(a1-6)]Man(b1-4)GlcNAc(b1-4)GlcNAc
# Summary of the method: as §1
# [3] = target: Neu5Ac(a2-3)Gal(b1-4)GlcNAc(b1-2)[Neu5Ac(a2-3)Gal(b1-4)GlcNAc(b1-6)]Man(a1-6)[Neu5Ac(a2-3)Gal(b1-4)GlcNAc(b1-2)Man(a1-3)][GlcNAc(b1-4)]Man(b1-4)GlcNAc(b1-4)GlcNAc
# Summary of the method: as §1
# [4] = target: Neu5Ac(a2-3)Gal(b1-4)GlcNAc(b1-3)Gal
# Summary of the method: as §1
# [5] = target: Neu5Ac(a2-3)Gal(b1-4)GlcNAc(b1-3)Gal(b1-3)GlcNAc
# Summary of the method: as §1
# [6] = target: Neu5Ac(a2-3)Gal(b1-4)GlcNAc(b1-3)Gal(b1-4)GlcNAc
# Summary of the method: as §1
# [7] = target: Neu5Ac(a2-3)Gal(b1-4)GlcNAc(b1-3)Gal(b1-4)GlcNAc(b1-2)Man(a1-3)[Neu5Ac(a2-3)Gal(b1-4)GlcNAc(b1-3)Gal(b1-4)GlcNAc(b1-2)Man(a1-6)]Man(b1-4)GlcNAc(b1-4)GlcNAc
# Summary of the method: as §1
# [8] = target: Neu5Ac(a2-3)Gal(b1-4)GlcNAc(b1-3)Gal(b1-4)GlcNAc(b1-3)Gal(b1-4)GlcNAc
# Summary of the method: as §1
# [9] = target: Neu5Ac(a2-3)Gal(b1-4)GlcNAc(b1-3)Gal(b1-4)GlcNAc(b1-3)Gal(b1-4)GlcNAc(b1-2)Man(a1-3)[Neu5Ac(a2-3)Gal(b1-4)GlcNAc(b1-3)Gal(b1-4)GlcNAc(b1-3)Gal(b1-4)GlcNAc(b1-2)Man(a1-6)]GalNAc
# Summary of the method: as §1
# [10] = target: Neu5Ac(a2-3)Gal(b1-4)GlcNAc(b1-3)Gal(b1-4)GlcNAc(b1-3)GalNAc
# Summary of the method: as §1
# [11] = target: Neu5Ac(a2-3)Gal(b1-4)GlcNAc(b1-3)Gal(b1-4)GlcNAc(b1-3)[Neu5Ac(a2-3)Gal(b1-4)GlcNAc(b1-3)Gal(b1-4)GlcNAc(b1-6)]GalNAc
# Summary of the method: as §1
# [12] = target: Neu5Ac(a2-3)Gal(b1-4)GlcNAc(b1-3)Gal(b1-4)GlcNAc(b1-6)[Gal(b1-3)]GalNAc
# Summary of the method: as §1
# [13] = target: Neu5Ac(a2-3)Gal(b1-4)GlcNAc(b1-3)Gal(b1-4)[Fuc(a1-3)]GlcNAc
# Summary of the method: as §1
# [14] = target: Neu5Ac(a2-3)Gal(b1-4)GlcNAc(b1-3)GalNAc
# Summary of the method: as §1
# [15] = target: Neu5Ac(a2-3)Gal(b1-4)GlcNAc(b1-3)[Neu5Ac(a2-3)Gal(b1-4)GlcNAc(b1-6)]GalNAc
# Summary of the method: as §1
# [16] = target: Neu5Ac(a2-3)Gal(b1-4)GlcNAc(b1-6)GalNAc
# Summary of the method: as §1
# [17] = target: Neu5Ac(a2-3)Gal(b1-4)GlcNAc(b1-6)[Gal(b1-3)]GalNAc
# Summary of the method: as §1
# [18] = target: Neu5Ac(a2-3)Gal(b1-4)GlcNAc(b1-6)[Neu5Ac(a2-3)Gal(b1-3)]GalNAc
# Summary of the method: as §1
# [19] = target: Neu5Ac(a2-3)Gal(b1-4)GlcNAc6S
# Summary of the method: as §1
# [20] = target: Neu5Ac(a2-3)Gal(b1-4)[Fuc(a1-3)]GlcNAc
# Summary of the method: as §1
# [21] = target: Neu5Ac(a2-3)Gal(b1-4)[Fuc(a1-3)]GlcNAc(b1-2)Man
# Summary of the method: as §1
# [22] = target: Neu5Ac(a2-3)Gal(b1-4)[Fuc(a1-3)]GlcNAc(b1-3)Gal
# Summary of the method: as §1
# [23] = target: Neu5Ac(a2-3)Gal(b1-4)[Fuc(a1-3)]GlcNAc(b1-3)Gal(b1-4)GlcNAc
# Summary of the method: as §1
# [24] = target: Neu5Ac(a2-3)Gal(b1-4)[Fuc(a1-3)]GlcNAc(b1-3)Gal(b1-4)[Fuc(a1-3)]GlcNAc(b1-3)Gal(b1-4)[Fuc(a1-3)]GlcNAc
# Summary of the method: as §1
# [25] = target: Neu5Ac(a2-3)Gal(b1-4)[Fuc(a1-3)]GlcNAc(b1-3)GalNAc
# Summary of the method: as §1
# [26] = target: Neu5Ac(a2-3)Gal(b1-4)[Fuc(a1-3)]GlcNAc(b1-6)[Gal(b1-3)]GalNAc
# Summary of the method: as §1
# [27] = target: Neu5Ac(a2-3)Gal(b1-4)[Fuc(a1-3)]GlcNAc(b1-6)[Neu5Ac(a2-3)Gal(b1-3)]GalNAc
# Summary of the method: as §1
# [28] = target: Neu5Ac(a2-3)Gal(b1-4)[Fuc(a1-3)]GlcNAc6S
# Summary of the method: as §1
# [29] = target: Neu5Ac(a2-3)Gal6S(b1-4)GlcNAc
# Summary of the method: as §1
# [30] = target: Neu5Ac(a2-3)Gal6S(b1-4)[Fuc(a1-3)]GlcNAc
# Summary of the method: as §1
# Neu5Ac(a2-3)GalNAc = target: Neu5Ac(a2-3)GalNAc
# Summary of the method: as §1
# [31] = target: Neu5Ac(a2-3)GalNAc(b1-4)GlcNAc
# Summary of the method: as §1
# [32] = target: Neu5Ac(a2-3)[GalNAc(b1-4)]Gal(b1-4)Glc
# Summary of the method: as §1
# [33] = target: Neu5Ac(a2-3)[GalNAc(b1-4)]Gal(b1-4)GlcNAc
# Summary of the method: as §1
# [34] = target: Neu5Ac(a2-3)[GalNAc(b1-4)]Gal(b1-4)GlcNAc(b1-3)GalNAc
# Summary of the method: as §1
# [35] = target: Neu5Ac(a2-3)[Neu5Ac(a2-6)]GalNAc
# Summary of the method: as §1
# Neu5Ac(a2-6)Gal = target: Neu5Ac(a2-6)Gal
# Summary of the method: as §1
# [36] = target: Neu5Ac(a2-6)Gal(b1-3)GlcNAc(b1-3)[Gal(b1-4)GlcNAc(b1-6)]Gal(b1-4)Glc
# Summary of the method: as §1
# Neu5Ac(a2-6)Gal(b1-4)Glc = target: Neu5Ac(a2-6)Gal(b1-4)Glc
# Summary of the method: as §1
# [37] = target: Neu5Ac(a2-6)Gal(b1-4)GlcNAc
# Summary of the method: as §1
# [38] = target: Neu5Ac(a2-6)Gal(b1-4)GlcNAc(b1-2)Man
# Summary of the method: as §1
# [39] = target: Neu5Ac(a2-6)Gal(b1-4)GlcNAc(b1-2)Man(a1-3)Man(b1-4)GlcNAc(b1-4)GlcNAc
# Summary of the method: as §1
# [40] = target: Neu5Ac(a2-6)Gal(b1-4)GlcNAc(b1-2)Man(a1-3)[Gal(b1-4)GlcNAc(b1-2)Man(a1-6)]Man(b1-4)GlcNAc(b1-4)GlcNAc
# Summary of the method: as §1
# [41] = target: Neu5Ac(a2-6)Gal(b1-4)GlcNAc(b1-2)Man(a1-3)[GlcNAc(b1-4)][Neu5Ac(a2-6)Gal(b1-4)GlcNAc(b1-2)Man(a1-6)]Man(b1-4)GlcNAc(b1-4)GlcNAc
# Summary of the method: as §1
# [42] = target: Neu5Ac(a2-6)Gal(b1-4)GlcNAc(b1-2)Man(a1-3)[Man(a1-6)]Man(b1-4)GlcNAc(b1-4)GlcNAc
# Summary of the method: as §1
binder,measurement,setting,value
RBMC1 (Vibrio cholerae) (protein) QQSQRVVTADNLMYLRSGFAIDAIGTTVNNLVGGPVQGTNGGVLRAPIALDQLQSVEVTSGLYNWGGYHIVAIKFTMKDGSSVLLGSTHYASNKKVETYTVPQGKRIKQINVWTGGWLVEGFQFVY,glycan array binding signal (z-score),[1],-0.332
same,glycan array binding signal (z-score),[2],-0.394
same,glycan array binding signal (z-score),[3],-0.463
same,glycan array binding signal (z-score),[4],-0.181
same,glycan array binding signal (z-score),[5],-0.363
same,glycan array binding signal (z-score),[6],-0.306
same,glycan array binding signal (z-score),[7],0.214
same,glycan array binding signal (z-score),[8],-0.32
same,glycan array binding signal (z-score),[9],0.281
same,glycan array binding signal (z-score),[10],-0.332
same,glycan array binding signal (z-score),[11],-0.249
same,glycan array binding signal (z-score),[12],0.14
same,glycan array binding signal (z-score),[13],0.075
same,glycan array binding signal (z-score),[14],-0.267
same,glycan array binding signal (z-score),[15],-0.352
same,glycan array binding signal (z-score),[16],-0.114
same,glycan array binding signal (z-score),[17],0.096
same,glycan array binding signal (z-score),[18],-0.291
same,glycan array binding signal (z-score),[19],-0.263
same,glycan array binding signal (z-score),[20],-0.385
same,glycan array binding signal (z-score),[21],-0.392
same,glycan array binding signal (z-score),[22],-0.289
same,glycan array binding signal (z-score),[23],-0.242
same,glycan array binding signal (z-score),[24],-0.373
same,glycan array binding signal (z-score),[25],-0.194
same,glycan array binding signal (z-score),[26],-0.369
same,glycan array binding signal (z-score),[27],-0.122
same,glycan array binding signal (z-score),[28],-0.031
same,glycan array binding signal (z-score),[29],-0.371
same,glycan array binding signal (z-score),[30],-0.294
same,glycan array binding signal (z-score),Neu5Ac(a2-3)GalNAc,-0.161
same,glycan array binding signal (z-score),[31],-0.378
same,glycan array binding signal (z-score),[32],-0.432
same,glycan array binding signal (z-score),[33],-0.395
same,glycan array binding signal (z-score),[34],-0.099
same,glycan array binding signal (z-score),[35],-0.02
same,glycan array binding signal (z-score),Neu5Ac(a2-6)Gal,-0.359
same,glycan array binding signal (z-score),[36],-0.461
same,glycan array binding signal (z-score),Neu5Ac(a2-6)Gal(b1-4)Glc,-0.22
same,glycan array binding signal (z-score),[37],-0.284
same,glycan array binding signal (z-score),[38],-0.206
same,glycan array binding signal (z-score),[39],-0.288
same,glycan array binding signal (z-score),[40],-0.28
same,glycan array binding signal (z-score),[41],-0.092
same,glycan array binding signal (z-score),[42],10.4
